Our source for the self-cleavage values is the RNAGym collection of RNA variant scans (doi:10.7554/elife.90254).

Read counts are not given, so values of variants with three or more changes are uncertain.

To fix the notation:
B1: OR4K15 (parent)
chain: GUUAACGGUCAUAGGCCAUGGAAACUAGGAGCACCAUUUCGCUGCCAGUGAAGAAAUGAACAAAGAAAAUCUGGGCCAGGCAGGCAUCAAAAGAAAUAGUCUUGCGCUCAACCAGAAAGUCUGUAAUCAUUUUAAGGGUA

Variants of B1 are the subject of the data set. Nature of the data set: self-cleavage, relative activity (ratio to wild type); higher = more cleavage; in vitro, sequencing; the parent is a self-cleaving ribozyme.
For G44A A47G A55G U130C, the self-cleavage is 1.77.

In the case of U43C A94G C105U, the self-cleavage was 0.37.

In the case of U49C A68U U70C, the self-cleavage was 0.42.

As for A47G U108C A129G U131C, the self-cleavage stood at 0.01.

Consider G50A A51U A96G U97A A98G, for which the self-cleavage amounted to 1.53.

For the variant A47U A52G A59G A63G A129G U130A, the self-cleavage is 0.32.

Consider A47G U139A A140G, for which the self-cleavage came to 1.05.

For C45G A92G U100C A126G, the self-cleavage came to 0.12.

Regarding A47G A64U G106C, the self-cleavage came to 0.05.

Take U43C U87C C113U: the self-cleavage turned out to be 0.02.

Take U43C G50U A55G A78G: the self-cleavage amounted to 0.27.

U49C A68G A91G A94G G138U: the self-cleavage amounted to 1.25.

For the variant A47G A60G A110G U132C, the self-cleavage was 0.15.

A47U A55G U120C: the self-cleavage was found to be 0.28.

Consider G44U A52G U120C, for which the self-cleavage worked out at 0.87.

With A47U U97A U132C, the self-cleavage came out at 1.25.

C46U U57C A59U: the self-cleavage was determined as 1.14.

As for U43C A92U A126U, the self-cleavage was 1.38.

Turning to A47G A55G A69G, the self-cleavage worked out at 0.61.

On to A47U A69G A89G U100A A110G A129G, for which the self-cleavage stood at 0.01.

Consider U49C U57C A60G C105U, for which the self-cleavage worked out at 0.03.

Take G48A A64U A94G A117G: the self-cleavage amounted to 1.22.

Turning to U49C A51G A68G U132C, the self-cleavage is 1.08.

Consider U49C A62G U120C, for which the self-cleavage is 0.73.

For the variant A47U A59G A69U G84C, the self-cleavage amounted to 0.2.

On to A47U U57C A78G, for which the self-cleavage came to 0.18.

On to U49C U87C A117G, for which the self-cleavage amounted to 1.72.

With U49C A69G A92G, the self-cleavage stood at 1.32.

With A47G U102C A129G, the self-cleavage amounted to 1.59.

Turning to A47G A135G U139C, the self-cleavage came to 1.08.

On to U49C A91G U130C A140G, for which the self-cleavage came out at 0.57.

Turning to U49C A69C A94G, the self-cleavage was 2.21.

As for A47G A94G U97A A111G, the self-cleavage is 0.02.

For the variant U49C A52G A69G A78U U127A U131C, the self-cleavage was 0.57.

U43C U49A A92G A98C: the self-cleavage came to 1.28.

With U49C A68G C107U C112U, the self-cleavage amounted to 0.02.

As for A47G A111G A129G, the self-cleavage came to 0.01.

Take A47G A64U A66U A89U: the self-cleavage worked out at 1.14.

As for A47G C77U U108C, the self-cleavage was found to be 0.03.

A47U A51G A96G U122C: the self-cleavage was determined as 0.28.

Consider U43C A90G A114U, for which the self-cleavage is 0.04.

As for G44A A59G A60G A114U A116G A117G, the self-cleavage came to 0.01.

Regarding G44C A78G U139C, the self-cleavage came out at 0.24.

Take U43C U70C C112U U127C: the self-cleavage came out at 0.01.

Take U49C U122C U130C: the self-cleavage was found to be 0.47.

On to G44A U72A A89U A94G A95G U131C, for which the self-cleavage was 0.03.

On to U49G A55G A60G, for which the self-cleavage turned out to be 1.12.

On to U49C A78U A86G, for which the self-cleavage worked out at 0.05.

With A47G C61U A118G A126G, the self-cleavage was 0.61.

Take C45G A47U U102C: the self-cleavage is 1.36.

In the case of G48U A89G C109A U120A, the self-cleavage is 0.1.

Turning to U49A A96G C113U, the self-cleavage came out at 0.08.

Regarding A47G U72C G84U U122A, the self-cleavage stood at 0.13.

As for U43C U87A A90G, the self-cleavage worked out at 0.09.

As for A47U A67G A68G A91G A116G, the self-cleavage was 0.4.

For U43C A114U U127C C128U U133C, the self-cleavage stood at 0.

Turning to U49C A62G A96C, the self-cleavage amounted to 0.38.

Take G44A A60G A68U: the self-cleavage was 1.23.

Turning to A47G A66G G99A, the self-cleavage came out at 0.48.

Regarding U49G C85A U127C, the self-cleavage was found to be 0.49.

On to U43G A51G A66U, for which the self-cleavage stood at 0.68.

As to U49C A51U G83A U133A, the self-cleavage was found to be 1.27.

In the case of U49C A56G A98U A126U, the self-cleavage came out at 0.

With U49C A92G U108C A114C, the self-cleavage worked out at 0.

Take A47G A55G A96G A116G: the self-cleavage worked out at 0.22.

In the case of A47G A86G U132A, the self-cleavage stood at 0.48.

Consider A47G A68G A110G, for which the self-cleavage turned out to be 0.05.

On to A47G A82G A117G, for which the self-cleavage worked out at 0.88.

In the case of U49C A55G A59G A116G, the self-cleavage amounted to 0.17.

On to G44A U57C U100C A116G, for which the self-cleavage amounted to 1.33.

C46U A78U A82G A95C G115A: the self-cleavage came out at 0.

On to G48A A96C A126G, for which the self-cleavage amounted to 0.4.

As for U43C U49C A91G, the self-cleavage came to 0.82.

As for A47G A67G U102C, the self-cleavage is 2.34.

For U43C A86G A110G A140U, the self-cleavage is 0.12.

Consider A47U A55G U131C, for which the self-cleavage was determined as 0.1.

Turning to U49C A116G A118G, the self-cleavage came out at 0.59.

With U49C A59G G136U, the self-cleavage came out at 1.43.

With U49C A60G U120C, the self-cleavage came to 0.8.

U49A A67G A68G U131C: the self-cleavage turned out to be 0.71.

Consider U49C U103C A111G, for which the self-cleavage was 0.01.

With A47G U120C U133C, the self-cleavage is 0.97.

For A47U U72A A78G U87C, the self-cleavage is 0.21.

Take A47U A56G U108C A126G: the self-cleavage was found to be 0.

As to A47G A82U A92G, the self-cleavage stood at 0.22.

For the variant U49A A68G A98U U132G, the self-cleavage is 2.08.

As for U49C A62G A126G, the self-cleavage stood at 1.05.

For U49C A69G A92G U102C, the self-cleavage was 1.66.

For the variant U49C A95G A118G U139C, the self-cleavage was determined as 1.3.

In the case of U49C A54G U133C, the self-cleavage came out at 2.07.

U43C C105U A116G: the self-cleavage worked out at 0.08.

Take C46U A82G A118G U132C: the self-cleavage was determined as 0.53.

As for G44A G79A U102C U108C U132C, the self-cleavage was 0.

In the case of A47G U70A U87C, the self-cleavage was found to be 0.41.

With U43C A92G U103C, the self-cleavage was found to be 0.4.

As for A47G A86U A94C, the self-cleavage was 1.42.

Regarding U49A G123A U132C, the self-cleavage amounted to 0.9.

For the variant C45A A51G U103A, the self-cleavage came to 0.74.

As to U43C U57C A116G, the self-cleavage was 0.13.

For the variant U43C U57C A82G U127C, the self-cleavage is 0.13.

On to G44A A55U A64C U133A, for which the self-cleavage stood at 1.51.

For the variant U49C A56U A63U, the self-cleavage came to 0.56.

As for A47G A94G A116G, the self-cleavage stood at 0.97.

With U49C A55G A94G, the self-cleavage was determined as 0.91.

For the variant A47G A68G U130C A134G, the self-cleavage worked out at 1.08.

Turning to U43C U102G A110U U131C, the self-cleavage was determined as 0.22.

Regarding U43C A94G A114U A116U, the self-cleavage was 0.03.

On to G50A A51U A78G C113U A118G, for which the self-cleavage amounted to 0.

Regarding U49A U87A A116U, the self-cleavage was 0.

Regarding A47U A91G A96G, the self-cleavage was determined as 1.14.

Consider A47G U131C G137A, for which the self-cleavage was 0.49.

In the case of A47U A51G A140G, the self-cleavage was 0.54.

Regarding U43C A95G U102C A118U, the self-cleavage came to 1.14.

Regarding U49A A90G U120C A129G, the self-cleavage amounted to 0.09.

Consider U43C C45U A52U A89G U108C A116G U139C, for which the self-cleavage amounted to 0.

In the case of A47G U124C U132C, the self-cleavage was 0.26.

Turning to G44A A59G A96G U102C A110G A117C A134G, the self-cleavage came out at 0.08.

Regarding U49C A78U A116G, the self-cleavage was determined as 0.07.

U49C U72A U87A U122C: the self-cleavage was determined as 0.15.

U49A A52G A67G: the self-cleavage came to 1.33.

Consider U49C A52G A95G, for which the self-cleavage is 1.66.

For the variant C46U A62U U72C U108C, the self-cleavage turned out to be 0.01.

G48U A62C A92U: the self-cleavage was determined as 1.89.

For U43G G50A U131C, the self-cleavage amounted to 1.58.

Turning to A47G A55G U108C, the self-cleavage was found to be 0.

U43C A117G A118G: the self-cleavage stood at 1.14.

Turning to A47G A59U U124C, the self-cleavage amounted to 0.69.

For U49C A89G A135G, the self-cleavage came to 1.51.

Turning to U49A U87G G104U A140G, the self-cleavage is 0.02.

As for A47U A118G U132C, the self-cleavage was determined as 0.34.

Consider U49A A91G A125G, for which the self-cleavage was found to be 0.26.

U43C A90G U108C: the self-cleavage is 0.01.

As for C45A A59G U120A, the self-cleavage came out at 0.55.

Turning to A47G A64G A78U A91G, the self-cleavage came out at 0.08.

Turning to A47G U57C A62G A98G, the self-cleavage is 0.22.

On to U49C A98U A126U, for which the self-cleavage was 2.16.

Turning to A47U A60C C81A, the self-cleavage came out at 0.26.

With U49C A56G U122G, the self-cleavage worked out at 1.53.

Consider U49C A67G U120A, for which the self-cleavage was found to be 1.21.

For the variant A47G A52U A60G, the self-cleavage came out at 0.53.

As for U49A A56U A94G, the self-cleavage is 1.55.

As for A47U A52G A82U A98G U108C, the self-cleavage was 0.01.

Consider A47U A62U U87C A92G, for which the self-cleavage was 0.98.

U49C A68U U122C: the self-cleavage stood at 0.75.

Consider G44A U49C A66G U132C, for which the self-cleavage was found to be 0.6.

Consider G48A G53U A82G A116G, for which the self-cleavage came out at 0.2.

As to A47U A60G U122C, the self-cleavage came out at 0.49.

Turning to C46A A62G A69G A86G U102C A110G, the self-cleavage turned out to be 0.11.

Turning to A47G G74U U87C, the self-cleavage worked out at 0.07.

Regarding U49A A52G A63G, the self-cleavage came out at 1.78.

As to U43C A86G A98U A134G, the self-cleavage was determined as 2.12.

Regarding A47G A52G A82G, the self-cleavage came out at 0.66.

For U49C A67G A92G U132A, the self-cleavage is 1.03.

Turning to A47G A59U A67G U120A, the self-cleavage worked out at 1.12.

Regarding U43C A91G U103C, the self-cleavage came out at 0.49.

Turning to A47G U70C A78G, the self-cleavage was 0.21.

Consider A47G A92G U108A A118G, for which the self-cleavage worked out at 0.

As to C46A U72A G84U, the self-cleavage was found to be 0.04.

With U43C C76G U87C, the self-cleavage came out at 0.11.

In the case of U49C A59G A96G U97C, the self-cleavage is 0.52.

As for A47U U49A A69G U87A, the self-cleavage was 1.03.

As for U43G A52G A86G, the self-cleavage worked out at 0.69.

Turning to U43C U103C G138A, the self-cleavage was determined as 1.03.

U43C U87A U124A: the self-cleavage is 0.62.

On to A47G A59G A111U A118U, for which the self-cleavage amounted to 0.01.

With U43C C46U A60G A91G U124C, the self-cleavage is 0.41.

A47G U49C U103C: the self-cleavage was determined as 0.3.
